Experimental data: the RNAGym collection of RNA variant scans (doi:10.1093/nar/gkz1192)
Read counts are not given, so values of variants with three or more changes are uncertain.

B1: CPEB3 Ribozyme (parent)
chain: UAACAGGGGGCCACAGCAGAAGCGUUCACGUCGCAGCCCCUGUCAGAUUCUGGUGAAUCUGCGAAUUCUGCUGUAUAUCUC

Variants of: B1
Assay: self-cleavage, relative activity (ratio to wild type); higher = more cleavage; in vitro, sequencing
In short: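 After error-prone PCR and barcoding, CPEB3 ribozyme mutant libraries were transcribed with T7 RNA polymerase at 37°C for 5 hours, then given 15 min with DNase I before an EDTA stop, and they cleaved during both steps. Reverse transcription with template switching preceded Illumina sequencing. Relative activity divides a variant's cleaved/total read fraction by the unmutated ribozyme's. At least 5 reads were required per variant, and three batches were averaged.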

Which self-cleavage does the source give for UAACAGGGGGCCACUGCAGAAGCGUUCACGCCGCAGCCCCUGUCAGUUUCUGGUGAAUCUGCGAAUUCUGCUGUAUGUCUC [A15U U31C A47U A77G] here?
Its self-cleavage is 0.16.

Which self-cleavage does the source give for UAACAGGGGGCCACUGCAGAAGCGUUCACGCCGCAGCCCCUGUCAGAUUCUGGUGAAUCUGCGGAUUCUGCCGUAUAUCUC [A15U U31C A64G U72C] here?
The self-cleavage was 0.16.

With UAACAGGGGGCCACUGCAGAAGCGUUCACGCCGCAGCCCCUGUCAGAUUCUGGUGAAUCUGCGGAUUCUGCUGUAUACCUC [A15U U31C A64G U78C] as the variant, how does the self-cleavage read?
The self-cleavage was 0.18.

For UAACAGGGGGCCACUGCAGAAGCGUUCACGCCGCAGCCACUGUCAGAUUCUGGUGAAUCUGCGAAUUCUGCUGUAUACCUC [A15U U31C C39A U78C], which self-cleavage is on record?
The self-cleavage was 0.09.

With UAACAGGGGGCCACUGCAGAAGCGUUCACGCCGCAGCCCUUGUCAGAUUCUGGUGGAUCAGCGAAAUCUGCUGUAUAUCGC [A15U U31C C40U A56G U60A U66A U80G] as the variant, how does the self-cleavage read?
Its self-cleavage is 0.04.

With UAACAGGGGGCCACUGCAGAAGCGUUCACGCCGCAGCCCUUGUCAGAUUCUGGUGAAUCUGCGAAUUCAGCUGUAUAUCUC [A15U U31C C40U U69A] as the variant, how does the self-cleavage read?
The self-cleavage was 0.07.

With UAACAGGGGGCCACUGCAGAAGCGUUCACGCCGCAACCCCUGUCAGAUUCUGGUGAAUCUGCGAAUUCUGCUGUAUAUCUC [A15U U31C G36A] as the variant, how does the self-cleavage read?
The self-cleavage was 0.13.

With UAACAGGGGGCCACUGCAGAAGCGUUCACGCCGCAGCCCCCGUCAGAUUCUGGUGAAUCUGCGAAUUCAGCUGUAUAUUUC [A15U U31C U41C U69A C79U] as the variant, how does the self-cleavage read?
Its self-cleavage is 0.16.

Which self-cleavage does the source give for UAACAGGGGGCCACUGCAGAAGCGUUCACGCCGCAGCCCCCGUCAGAUUCUGGUGAAUCUGCGAAUUCUGCAGUAUAUCUC [A15U U31C U41C U72A] here?
The self-cleavage was 0.73.

For UAACAGGGGGCCACUGCAGAAGCGUUCACGCCGCAGCCCCUGCCAGAUUCUGGUGAAUCUGCGAAUUCUGCUGUAUAUCUC [A15U U31C U43C], which self-cleavage is on record?
The self-cleavage was 0.27.

For UAACAGGGGGCCACUGCAGAAGCGUUCACGCCGCAGCCCCUGGCAGAUUCUGGUGAAUCUGCGAAUUCUGCUGUAUAUCUC [A15U U31C U43G], which self-cleavage is on record?
Its self-cleavage is 0.06.

For UAACAGGGGGCCACUGCAGAAGCGUUCACGCCGCAGCCCCUGUCAGACUCUGGUGAAUCUGCGAAUUCUGCUGUAUAUCUC [A15U U31C U48C], which self-cleavage is on record?
The self-cleavage was 0.18.

Which self-cleavage does the source give for UAACAGGGGGCCACUGCAGAAGCGUUCACGCCGCAGCCCCUGUCAGAUUCAGGUGAAUCUGCGAGUUCUGCUGUAUAUCUC [A15U U31C U51A A65G] here?
Its self-cleavage is 0.09.

With UAACAGGGGGCCACUGCAGAAGCGUUCACGGCGCUGCCCCUGUCAGUUUCUGGUGAUUCUGCGAAUUCUGCUAUAUAUCUC [A15U U31G A35U A47U A57U G73A] as the variant, how does the self-cleavage read?
The self-cleavage was 0.19.

Which self-cleavage does the source give for UAACAGGGGGCCACUGCAGAAGCGUUCACGGCGCAGCCCCAGUCAGAUUCUGGUGAUUCUGCGAAUUCUGCUGUAUAUCUC [A15U U31G U41A A57U] here?
Its self-cleavage is 0.12.

Which self-cleavage does the source give for UAACAGGGGGCCACUGCAGAAGCGUUCACGUCGCAGCCCCAGUCAGAUUCUGGUGAAUCUGCGAGGCCUGCUAUAUAUCUA [A15U U41A A65G U66G U67C G73A C81A] here?
Its self-cleavage is 0.03.

With UAACAGGGGGCCACUGCAGAAGCGUUCACGUCGCAGCCCCAGUCAGAUUCUGGUGAAUCUGCGAAUUCUGCUGUUUAUCUC [A15U U41A A75U] as the variant, how does the self-cleavage read?
The self-cleavage was 0.24.

With UAACAGGGGGCCACUGCAGAAGCGUUCACGUCGCAGCCCCAGUCAGAUUCUGGUGAAUCUGCGAAUUCUGCUGUAUUUCUC [A15U U41A A77U] as the variant, how does the self-cleavage read?
Its self-cleavage is 0.13.

Which self-cleavage does the source give for UAACAGGGGGCCACUGCAGAAGCGUUCACGUCGCAGCCCCAGUCAGAUUCUGGUGAAUCUGCGAAUUUUGCUGUAUAUCUC [A15U U41A C68U] here?
Its self-cleavage is 0.26.

Which self-cleavage does the source give for UAACAGGGGGCCACUGCAGAAGCGUUCACGUCGCAGCCCCAGUCAGAUUCUGGAGGAUCUGCGAAUUCUGCUGUAUAUCAC [A15U U41A U54A A56G U80A] here?
The self-cleavage was 0.25.

With UAACAGGGGGCCACUGCAGAAGCGUUCACGUCGCAGCCCCAGUCAGAUUCUGGUGAAUCUGCGAAUUCUGCUGUAUACCUC [A15U U41A U78C] as the variant, how does the self-cleavage read?
The self-cleavage was 0.35.

For UAACAGGGGGCCACUGCAGAAGCGUUCACGUCGCAGCCCCCGUCGGAUUCAGGUGAAUCUGCGAUUUCUGCUGUAUAUCUC [A15U U41C A45G U51A A65U], which self-cleavage is on record?
Its self-cleavage is 0.12.

With UAACAGGGGGCCACUGCAGAAGCGUUCACGUCGCAGCCCCCGUCUGAUUCUGGUGAAUCUGCGAAUUCUGCUGUAUAUCUC [A15U U41C A45U] as the variant, how does the self-cleavage read?
The self-cleavage was 0.51.

With UAACAGGGGGCCACUGCAGAAGCGUUCACGUCGCAGCCCCCGUCAGAUUCUCAUGAAUUCGCGAAUUCUGCUGUAUAUCUC [A15U U41C G52C G53A C59U U60C] as the variant, how does the self-cleavage read?
Its self-cleavage is 0.23.

For UAACAGGGGGCCACUGCAGAAGCGUUCACGUCGCAGCCCCCGUCAGAUUCCGGUGAAUCUGCGGAUUCUGCUGUAUAUCUC [A15U U41C U51C A64G], which self-cleavage is on record?
Its self-cleavage is 0.39.

Which self-cleavage does the source give for UAACAGGGGGCCACUGCAGAAGCGUUCACGUCGCAGCCCCCGUCAGAUUCUGGGGAAUCUGCGAAUUCUGCUGUAUAUCUC [A15U U41C U54G] here?
The self-cleavage was 1.09.

For UAACAGGGGGCCACUGCAGAAGCGUUCACGUCGCAGCCCCCGUCAGAUUCUGGUGAAUCUGCGAAUCCUGCUGUAUAUCUC [A15U U41C U67C], which self-cleavage is on record?
Its self-cleavage is 0.19.

For UAACAGGGGGCCACUGCAGAAGCGUUCACGUCGCAGCCCCCGUCAGAUUCUGGUGAAUCUGCGAAUUCCGCUGUAUAUCUC [A15U U41C U69C], which self-cleavage is on record?
The self-cleavage was 0.68.

Which self-cleavage does the source give for UAACAGGGGGCCACUGCAGAAGCGUUCACGUCGCAGCCCCGGUCAGAUUCUGGUGGAUCUGCGAAUUCUGCUGUAUAUCUC [A15U U41G A56G] here?
Its self-cleavage is 0.06.

For UAACAGGGGGCCACUGCAGAAGCGUUCACGUCGCAGCCCCUGCCAGAUUCGGGUGAGUCUGCGAGUUCUGCUGUAUACCUC [A15U U43C U51G A57G A65G U78C], which self-cleavage is on record?
The self-cleavage was 0.05.

With UAACAGGGGGCCACUGCAGAAGCGUUCACGUCGCAGCCCCUGCCAGAUUCUGGCGAAUCUGCUAAUUCUGCUGCAUAUCUC [A15U U43C U54C G63U U74C] as the variant, how does the self-cleavage read?
Its self-cleavage is 0.44.

With UAACAGGGGGCCACUGCAGAAGCGUUCACGUCGCAGCCCCUGGCAGAUUCUGGUGAAUCUGCGAAUUCUGCUGUAUAUCCC [A15U U43G U80C] as the variant, how does the self-cleavage read?
Its self-cleavage is 0.28.

With UAACAGGGGGCCACUGCAGAAGCGUUCACGUCGCAGCCCCUGUCAGACUCUGGUGGAUCUGCGAAUUCUACUGUAUAUCUC [A15U U48C A56G G70A] as the variant, how does the self-cleavage read?
Its self-cleavage is 0.69.

With UAACAGGGGGCCACUGCAGAAGCGUUCACGUCGCAGCCCCUGUCAGACUCUGGUGAAUCUGCGAAUUCUGCUGUAUGUCUC [A15U U48C A77G] as the variant, how does the self-cleavage read?
Its self-cleavage is 0.22.
